Experimental data: the supplement of paper PMC4996465
Viability of KB3-1 and Nalm-6 cells after 48 h of drug alone (CellTiter-Glo), 11 doses over about 4.5 log units. % of DMSO wells, lower = more cell loss; AC50 from the fitted curve, lower = more potent. No active / inactive call. Nalm-6 was screened in two runs. AC50 is listed only for well-fitted inhibitory curves. KB3-1 is a HeLa-derived carcinoma line, Nalm-6 a B-cell precursor leukaemia line.

How the values were obtained:
KB3-1 [1] = test: log AC50 of viability decrease (48 h) (log10 M); higher = less potent
Method: (§1)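 Eleven-dose screen of the NCATS MIPE 3 library on cells without co-treatment; CellTiter-Glo after 48 h. AC50 from the curve fit; only inhibitory curves of the better fit classes are listed.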

Nalm-6 [2] = test: as above
Method: as §1

KB3-1 [3] = test: viability (% of DMSO control); higher = more viable cells
Method: (§2)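 Eleven-dose screen of the NCATS MIPE 3 library on cells without co-treatment; CellTiter-Glo after 48 h, as % of DMSO wells.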

Nalm-6 [4] = test: as above
Method: as §2

COCC(=O)NC/C=C/c1ccc2ncnc(Nc3ccc(Oc4ccc(C)nc4)c(C)c3)c2c1
Details | log AC50 of viability decrease
KB3-1 [1] | -4.73

Details | log AC50 of viability decrease | viability [%]
KB3-1 [3], 0.00078 µM | – | 102
KB3-1 [3], 0.00234 µM | – | 101
KB3-1 [3], 0.00702 µM | – | 103
KB3-1 [3], 0.0211 µM | – | 98.4
KB3-1 [3], 0.0632 µM | – | 97.1
KB3-1 [3], 0.19 µM | – | 103
KB3-1 [3], 0.569 µM | – | 95.8
KB3-1 [3], 1.71 µM | – | 96.2
KB3-1 [3], 5.12 µM | – | 87.3
KB3-1 [3], 15.4 µM | – | 80.7
KB3-1 [3], 46.1 µM | – | 63.7
Nalm-6 [2], run: 1 | -4.73 | –
Nalm-6 [2], run: 2 | -4.63 | –
Nalm-6 [4], run: 1, 0.00078 µM | – | 125
Nalm-6 [4], run: 1, 0.00234 µM | – | 109
Nalm-6 [4], run: 1, 0.00702 µM | – | 117
Nalm-6 [4], run: 1, 0.0211 µM | – | 121
Nalm-6 [4], run: 1, 0.0632 µM | – | 115
Nalm-6 [4], run: 1, 0.19 µM | – | 110
Nalm-6 [4], run: 1, 0.569 µM | – | 112
Nalm-6 [4], run: 1, 1.71 µM | – | 112
Nalm-6 [4], run: 1, 5.12 µM | – | 90.6
Nalm-6 [4], run: 1, 15.4 µM | – | 71.9
Nalm-6 [4], run: 1, 46.1 µM | – | 14.6
Nalm-6 [4], run: 2, 0.00078 µM | – | 111
Nalm-6 [4], run: 2, 0.00234 µM | – | 96.3
Nalm-6 [4], run: 2, 0.00702 µM | – | 109
Nalm-6 [4], run: 2, 0.0211 µM | – | 111
Nalm-6 [4], run: 2, 0.0632 µM | – | 112
Nalm-6 [4], run: 2, 0.19 µM | – | 112
Nalm-6 [4], run: 2, 0.569 µM | – | 109
Nalm-6 [4], run: 2, 1.71 µM | – | 108
Nalm-6 [4], run: 2, 5.12 µM | – | 98.6
Nalm-6 [4], run: 2, 15.4 µM | – | 93.7
Nalm-6 [4], run: 2, 46.1 µM | – | 11.7

CC1CC(C)C(=O)C(C(O)CC2CC(=O)NC(=O)C2)C1 (stereo not drawn) [cycloheximide]
Details | log AC50 of viability decrease
KB3-1 [1] | -6.72

Details | log AC50 of viability decrease | viability [%]
KB3-1 [3], 0.00156 µM | – | 93.4
KB3-1 [3], 0.00468 µM | – | 97.5
KB3-1 [3], 0.014 µM | – | 94.7
KB3-1 [3], 0.0421 µM | – | 84.4
KB3-1 [3], 0.126 µM | – | 66.2
KB3-1 [3], 0.379 µM | – | 45.6
KB3-1 [3], 1.14 µM | – | 29.5
KB3-1 [3], 3.41 µM | – | 27.7
KB3-1 [3], 10.2 µM | – | 23.6
KB3-1 [3], 30.7 µM | – | 22.1
KB3-1 [3], 92.2 µM | – | 13.6
Nalm-6 [2], run: 1 | -7.27 | –
Nalm-6 [2], run: 2 | -7.27 | –
Nalm-6 [4], run: 1, 0.00156 µM | – | 91.6
Nalm-6 [4], run: 1, 0.00468 µM | – | 100
Nalm-6 [4], run: 1, 0.014 µM | – | 97.2
Nalm-6 [4], run: 1, 0.0421 µM | – | 70.7
Nalm-6 [4], run: 1, 0.126 µM | – | 53.5
Nalm-6 [4], run: 1, 0.379 µM | – | 38.6
Nalm-6 [4], run: 1, 1.14 µM | – | 28.7
Nalm-6 [4], run: 1, 3.41 µM | – | 34.1
Nalm-6 [4], run: 1, 10.2 µM | – | 50.1
Nalm-6 [4], run: 1, 30.7 µM | – | 47
Nalm-6 [4], run: 1, 92.2 µM | – | 35.6
Nalm-6 [4], run: 2, 0.00156 µM | – | 105
Nalm-6 [4], run: 2, 0.00468 µM | – | 97.1
Nalm-6 [4], run: 2, 0.014 µM | – | 98
Nalm-6 [4], run: 2, 0.0421 µM | – | 73.5
Nalm-6 [4], run: 2, 0.126 µM | – | 56.4
Nalm-6 [4], run: 2, 0.379 µM | – | 46.4
Nalm-6 [4], run: 2, 1.14 µM | – | 24.6
Nalm-6 [4], run: 2, 3.41 µM | – | 18.3
Nalm-6 [4], run: 2, 10.2 µM | – | 50.6
Nalm-6 [4], run: 2, 30.7 µM | – | 49.6
Nalm-6 [4], run: 2, 92.2 µM | – | 48

Cc1n[nH]c2ccc(-c3cncc(OC[C@@H](N)Cc4ccccc4)c3)cc12
Details | log AC50 of viability decrease
KB3-1 [1] | -5.88

Details | log AC50 of viability decrease | viability [%]
KB3-1 [3], 0.00078 µM | – | 100
KB3-1 [3], 0.00234 µM | – | 104
KB3-1 [3], 0.00702 µM | – | 105
KB3-1 [3], 0.0211 µM | – | 103
KB3-1 [3], 0.0632 µM | – | 104
KB3-1 [3], 0.19 µM | – | 100
KB3-1 [3], 0.569 µM | – | 81.8
KB3-1 [3], 1.71 µM | – | 45.1
KB3-1 [3], 5.12 µM | – | 14.3
KB3-1 [3], 15.4 µM | – | 15.1
KB3-1 [3], 46.1 µM | – | 2.73
Nalm-6 [2], run: 1 | -5.88 | –
Nalm-6 [2], run: 2 | -5.93 | –
Nalm-6 [4], run: 1, 0.00078 µM | – | 111
Nalm-6 [4], run: 1, 0.00234 µM | – | 106
Nalm-6 [4], run: 1, 0.00702 µM | – | 97.1
Nalm-6 [4], run: 1, 0.0211 µM | – | 101
Nalm-6 [4], run: 1, 0.0632 µM | – | 111
Nalm-6 [4], run: 1, 0.19 µM | – | 108
Nalm-6 [4], run: 1, 0.569 µM | – | 78.8
Nalm-6 [4], run: 1, 1.71 µM | – | 44.4
Nalm-6 [4], run: 1, 5.12 µM | – | 4.89
Nalm-6 [4], run: 1, 15.4 µM | – | 1.19
Nalm-6 [4], run: 1, 46.1 µM | – | 0.324
Nalm-6 [4], run: 2, 0.00078 µM | – | 108
Nalm-6 [4], run: 2, 0.00234 µM | – | 110
Nalm-6 [4], run: 2, 0.00702 µM | – | 106
Nalm-6 [4], run: 2, 0.0211 µM | – | 103
Nalm-6 [4], run: 2, 0.0632 µM | – | 110
Nalm-6 [4], run: 2, 0.19 µM | – | 107
Nalm-6 [4], run: 2, 0.569 µM | – | 72.8
Nalm-6 [4], run: 2, 1.71 µM | – | 42.2
Nalm-6 [4], run: 2, 5.12 µM | – | 2.15
Nalm-6 [4], run: 2, 15.4 µM | – | 0.892
Nalm-6 [4], run: 2, 46.1 µM | – | -0.396
